The text below walks through data of paper PMC12820563.

The other results are listed elsewhere or left out. The list includes weakly bound sequences.

The target in this assay is T1, MBP-FoxP3dN (UniProt Q99JB6).
T1 sequence: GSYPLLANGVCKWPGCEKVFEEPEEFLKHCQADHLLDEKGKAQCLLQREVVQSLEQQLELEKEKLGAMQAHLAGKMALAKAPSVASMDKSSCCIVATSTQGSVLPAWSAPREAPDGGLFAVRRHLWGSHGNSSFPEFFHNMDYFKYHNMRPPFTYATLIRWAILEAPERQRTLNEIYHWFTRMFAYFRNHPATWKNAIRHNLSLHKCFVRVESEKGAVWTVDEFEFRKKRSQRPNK
The assay can be described thus: PD-seq (MBP pull-down with sequencing). The note with it: 20 mM Tris-HCl pH 7.5, 100 mM NaCl, 1.5 mM MgCl2, 0.4 uM protein, 0.1 uM dsDNA library, 30 min, room temperature, amylose pull-down; high values mean tight binding; double strand, one strand shown.
For the sequence “GATGATTGTTCTCCCAGCTGATGAATTCGATTGATCGAGTAAACAAATTTTCCTAATCTTTCTGTTCAAGCGCCATCTAC”, the binding signal (RPM ratio (pull-down/input)) amounted to 1.17.
The same measure for “GATGATTGTTCTCCCAGCTGATGAATTGAAGAGTTCGAGTAAACAAATTTTCCTAATCTTTCTGTTCAAGCGCCATCTAC”: 0.363.
With “GATGATTGTTCTCCCAGCTGATGAATTACGCCGCTCGAGTAAACAAATTTTCCTAATCTTTCTGTTCAAGCGCCATCTAC”, the binding signal (RPM ratio (pull-down/input)) came out at 1.9.
Turning to “GATGATTGTTCTCCCAGCTGATGAATTCCAAATGTCGAGTAAACAAATTTTCCTAATCTTTCTGTTCAAGCGCCATCTAC”, the binding signal (RPM ratio (pull-down/input)) was determined as 0.315.
The same measure for “GATGATTGTTCTCCCAGCTGATGAATTATTTATTTCGAGTAAACAAATTTTCCTAATCTTTCTGTTCAAGCGCCATCTAC”: 2.74; for “GATGATTGTTCTCCCAGCTGATGAATTACTCCCCTCGAGTAAACAAATTTTCCTAATCTTTCTGTTCAAGCGCCATCTAC”: 0.281; for “GATGATTGTTCTCCCAGCTGATGAATTGCCGAAGTCGAGTAAACAAATTTTCCTAATCTTTCTGTTCAAGCGCCATCTAC”: 0.358.
The same measure for “GATGATTGTTCTCCCAGCTGATGAATTCAATATCTCGAGTAAACAAATTTTCCTAATCTTTCTGTTCAAGCGCCATCTAC”: 0.952.
Consider “GATGATTGTTCTCCCAGCTGATGAATTACAGCCATCGAGTAAACAAATTTTCCTAATCTTTCTGTTCAAGCGCCATCTAC”, for which the binding signal (RPM ratio (pull-down/input)) turned out to be 1.14.
The same measure for “GATGATTGTTCTCCCAGCTGATGAATTCTAATTTTCGAGTAAACAAATTTTCCTAATCTTTCTGTTCAAGCGCCATCTAC”: 0.566.
In the case of “GATGATTGTTCTCCCAGCTGATGAATTCTGAATTTCGAGTAAACAAATTTTCCTAATCTTTCTGTTCAAGCGCCATCTAC” it was 1.22.
In the case of “GATGATTGTTCTCCCAGCTGATGAATTGCGATCTTCGAGTAAACAAATTTTCCTAATCTTTCTGTTCAAGCGCCATCTAC” it was 0.844; in that of “GATGATTGTTCTCCCAGCTGATGAATTCGCCTCCTCGAGTAAACAAATTTTCCTAATCTTTCTGTTCAAGCGCCATCTAC”, 2.15.
In the case of “GATGATTGTTCTCCCAGCTGATGAATTAAAACATTCGAGTAAACAAATTTTCCTAATCTTTCTGTTCAAGCGCCATCTAC”, the binding signal (RPM ratio (pull-down/input)) came to 0.944.
“GATGATTGTTCTCCCAGCTGATGAATTAGACCCTTCGAGTAAACAAATTTTCCTAATCTTTCTGTTCAAGCGCCATCTAC”: the binding signal (RPM ratio (pull-down/input)) amounted to 0.334.
For “GATGATTGTTCTCCCAGCTGATGAATTGCGTGGCTCGAGTAAACAAATTTTCCTAATCTTTCTGTTCAAGCGCCATCTAC”, the binding signal (RPM ratio (pull-down/input)) came to 1.35.
The same measure for “GATGATTGTTCTCCCAGCTGATGAATTAGGGCAGTCGAGTAAACAAATTTTCCTAATCTTTCTGTTCAAGCGCCATCTAC”: 0.376.
In the case of “GATGATTGTTCTCCCAGCTGATGAATTGGGCTTGTCGAGTAAACAAATTTTCCTAATCTTTCTGTTCAAGCGCCATCTAC” it was 2.4; in that of “GATGATTGTTCTCCCAGCTGATGAATTCAGCGTCTCGAGTAAACAAATTTTCCTAATCTTTCTGTTCAAGCGCCATCTAC”, 3.42; in that of “GATGATTGTTCTCCCAGCTGATGAATTGTTCACGTCGAGTAAACAAATTTTCCTAATCTTTCTGTTCAAGCGCCATCTAC”, 0.396.
With “GATGATTGTTCTCCCAGCTGATGAATTTGTAAGGTCGAGTAAACAAATTTTCCTAATCTTTCTGTTCAAGCGCCATCTAC”, the binding signal (RPM ratio (pull-down/input)) turned out to be 1.8.
The same measure for “GATGATTGTTCTCCCAGCTGATGAATTGATCGATTCGAGTAAACAAATTTTCCTAATCTTTCTGTTCAAGCGCCATCTAC”: 0.337; for “GATGATTGTTCTCCCAGCTGATGAATTGTTATGTTCGAGTAAACAAATTTTCCTAATCTTTCTGTTCAAGCGCCATCTAC”: 3.51.
In the case of “GATGATTGTTCTCCCAGCTGATGAATTGACGCACTCGAGTAAACAAATTTTCCTAATCTTTCTGTTCAAGCGCCATCTAC”, the binding signal (RPM ratio (pull-down/input)) is 1.04.
Regarding “GATGATTGTTCTCCCAGCTGATGAATTGCGAATGTCGAGTAAACAAATTTTCCTAATCTTTCTGTTCAAGCGCCATCTAC”, the binding signal (RPM ratio (pull-down/input)) was 1.16.
In the case of “GATGATTGTTCTCCCAGCTGATGAATTCTGACAATCGAGTAAACAAATTTTCCTAATCTTTCTGTTCAAGCGCCATCTAC” it was 0.395; in that of “GATGATTGTTCTCCCAGCTGATGAATTAATGATTTCGAGTAAACAAATTTTCCTAATCTTTCTGTTCAAGCGCCATCTAC”, 1.13; in that of “GATGATTGTTCTCCCAGCTGATGAATTGTCTTGTTCGAGTAAACAAATTTTCCTAATCTTTCTGTTCAAGCGCCATCTAC”, 0.854.
With “GATGATTGTTCTCCCAGCTGATGAATTATTCCTCTCGAGTAAACAAATTTTCCTAATCTTTCTGTTCAAGCGCCATCTAC”, the binding signal (RPM ratio (pull-down/input)) was 0.338.
In the case of “GATGATTGTTCTCCCAGCTGATGAATTACAACTTTCGAGTAAACAAATTTTCCTAATCTTTCTGTTCAAGCGCCATCTAC” it was 0.849; in that of “GATGATTGTTCTCCCAGCTGATGAATTCCTGGAGTCGAGTAAACAAATTTTCCTAATCTTTCTGTTCAAGCGCCATCTAC”, 0.177; in that of “GATGATTGTTCTCCCAGCTGATGAATTATTATAATCGAGTAAACAAATTTTCCTAATCTTTCTGTTCAAGCGCCATCTAC”, 0.552.
The same measure for “GATGATTGTTCTCCCAGCTGATGAATTGAAACGATCGAGTAAACAAATTTTCCTAATCTTTCTGTTCAAGCGCCATCTAC”: 0.283; for “GATGATTGTTCTCCCAGCTGATGAATTGTCGTAATCGAGTAAACAAATTTTCCTAATCTTTCTGTTCAAGCGCCATCTAC”: 1.03.
In the case of “GATGATTGTTCTCCCAGCTGATGAATTTGAAGATTCGAGTAAACAAATTTTCCTAATCTTTCTGTTCAAGCGCCATCTAC” it was 0.277.
Regarding “GATGATTGTTCTCCCAGCTGATGAATTTGAGGGGTCGAGTAAACAAATTTTCCTAATCTTTCTGTTCAAGCGCCATCTAC”, the binding signal (RPM ratio (pull-down/input)) was determined as 0.728.
For the sequence “GATGATTGTTCTCCCAGCTGATGAATTATGGATCTCGAGTAAACAAATTTTCCTAATCTTTCTGTTCAAGCGCCATCTAC”, the binding signal (RPM ratio (pull-down/input)) amounted to 0.445.
In the case of “GATGATTGTTCTCCCAGCTGATGAATTCTGAGTATCGAGTAAACAAATTTTCCTAATCTTTCTGTTCAAGCGCCATCTAC” it was 0.691; in that of “GATGATTGTTCTCCCAGCTGATGAATTAACTAGGTCGAGTAAACAAATTTTCCTAATCTTTCTGTTCAAGCGCCATCTAC”, 0.214; in that of “GATGATTGTTCTCCCAGCTGATGAATTACCAGTGTCGAGTAAACAAATTTTCCTAATCTTTCTGTTCAAGCGCCATCTAC”, 0.421.
